Reference: paper PMC10133230
Residue numbers refer to the chain shown, from its start. These are yes or no findings as the source states them, for the method shown. For some assays here: Binding seen in cells or lysates may run through a third protein. Some entries that bind do so weakly or less than the wild type. For some assays here: Tags and fused reporters may be left off the sequences shown.

Amino acid sequences for entries named in this document (tags omitted). A change or cut given only in a name is not applied to a line headed by its entry.
UniProt Q39057: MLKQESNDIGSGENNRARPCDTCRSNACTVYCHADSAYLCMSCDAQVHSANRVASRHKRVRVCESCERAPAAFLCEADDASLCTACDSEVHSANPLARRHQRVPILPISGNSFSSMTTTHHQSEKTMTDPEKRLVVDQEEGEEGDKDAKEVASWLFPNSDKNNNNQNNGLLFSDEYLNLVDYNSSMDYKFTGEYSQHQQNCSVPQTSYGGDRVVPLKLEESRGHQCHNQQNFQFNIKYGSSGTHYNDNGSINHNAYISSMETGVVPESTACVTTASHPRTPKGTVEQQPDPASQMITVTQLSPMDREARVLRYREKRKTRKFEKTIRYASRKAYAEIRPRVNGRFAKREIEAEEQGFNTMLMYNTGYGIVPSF

Experiments:
[1] = target: T1, HLS1 fused to cLUC (LCI assay) (Arabidopsis thaliana) (UniProt Q42381); assay: split reporter; firefly luciferase complementation imaging (LCI): HLS1 in pCAMBIA1300-cLUC and CO in pCAMBIA1300-nLUC, agroinfiltrated N. benthamiana leaves, LUC activity by CCD camera
T1 sequence: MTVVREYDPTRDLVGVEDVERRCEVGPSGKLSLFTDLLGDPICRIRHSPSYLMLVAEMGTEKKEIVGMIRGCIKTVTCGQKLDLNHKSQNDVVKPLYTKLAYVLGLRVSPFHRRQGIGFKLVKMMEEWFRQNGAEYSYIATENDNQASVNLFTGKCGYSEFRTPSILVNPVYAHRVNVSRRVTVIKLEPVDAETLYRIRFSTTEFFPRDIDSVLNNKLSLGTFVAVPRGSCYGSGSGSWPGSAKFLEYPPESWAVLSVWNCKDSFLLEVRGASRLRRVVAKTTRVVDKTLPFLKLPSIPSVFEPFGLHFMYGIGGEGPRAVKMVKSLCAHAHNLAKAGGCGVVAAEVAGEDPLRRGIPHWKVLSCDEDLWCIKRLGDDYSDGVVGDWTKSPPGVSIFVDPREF

[2] = target: T2, HLS1^E346K, the hls1-1 mutated form of HLS1, fused to cYFP (BiFC assay) (Arabidopsis thaliana) (UniProt Q42381); assay: split reporter; BiFC: CO dNt with nYFP and HLS1 or HLS1^E346K with cYFP, co-expressed in N. benthamiana leaves for 2 days, YFP by confocal microscopy
T2 sequence: T1 sequence with E346K

[3] = target: T3, HLS1 fused to cYFP (BiFC assay) (Arabidopsis thaliana) (UniProt Q42381); assay: as above
T3 sequence: T1 sequence

[4] = target: T4, HOOKLESS1 (HLS1), yeast two-hybrid bait (Arabidopsis thaliana) (UniProt Q42381); assay: two-hybrid; Matchmaker Gold system, yeast strain AH109, HLS1 as bait and CO forms as prey; growth on SD (-Leu/-His/-Ade/-Trp) at 28 °C for 4-7 days
T4 sequence: T1 sequence

CO fused to nLUC (LCI assay) (from UniProt Q39057 1-373)
binding [1]: binds

CO dNt fused to nYFP (BiFC assay) (from UniProt Q39057 133-373) (domain or fragment)
binding [2]: no binding
binding [3]: binds

CO dNt (carboxyl end of CO, amino acids 133-374), yeast two-hybrid prey (from UniProt Q39057 133-373) (domain or fragment)
binding [4]: binds

CONSTANS (CO), yeast two-hybrid prey (from UniProt Q39057 1-373)
binding [4]: binds
